Reference: the supplement of paper PMC4604168 (melanoma cell lines)
The list shows a part of the results. Most values come without repeats; read them as rough.
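Also: cell number obtained by counting DAPI-stained nuclei in high-throughput microscope images with image analysis software, screen run in 1,536-well plates.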

Each molecule was assayed on C32 (assay: cell count relative to DMSO control; melanoma cells; higher = more viable cells). Details: library dose: low library concentration; 72 h.
`CC(=O)c1c(C)c2cnc(Nc3ccc(N4CCNCC4)cn3)nc2n(C2CCCC2)c1=O` [palbociclib] + COC(=O)c1sccc1S(=O)(=O)Nc1ccc(Nc2ccccc2)cc1OC [GSK0660] (first compound 0.04 µM, partner dose 1 µM) showed a cell count of 68.1%.
In the case of `CO[C@H]1C[C@@H]2CC[C@@H](C)[C@@](O)(O2)C(=O)C(=O)N2CCCC[C@H]2C(=O)O[C@H]([C@H](C)C[C@@H]2CC[C@@H](OCCO)[C@H](OC)C2)CC(=O)[C@H](C)/C=C(\C)[C@@H](O)[C@@H](OC)C(=O)[C@H](C)C[C@H](C)/C=C/C=C/C=C/1C` [everolimus] + Cn1cc(/C=C2\C(=O)Nc3cccnc32)c2ccccc21 [GW441756] (first compound 0.02 µM, partner dose 0.4 µM), the cell count is reported as 91.4%.
Molecule `CO[C@H]1C[C@@H]2CC[C@@H](C)[C@@](O)(O2)C(=O)C(=O)N2CCCC[C@H]2C(=O)O[C@H]([C@H](C)C[C@@H]2CC[C@@H](OCCO)[C@H](OC)C2)CC(=O)[C@H](C)/C=C(\C)[C@@H](O)[C@@H](OC)C(=O)[C@H](C)C[C@H](C)/C=C/C=C/C=C/1C` [everolimus] + CCN(CC)CCCCNc1ncc2cc(-c3cc(OC)cc(OC)c3)c(NC(=O)NC(C)(C)C)nc2n1 [PD173074] (first compound 0.02 µM, partner dose 0.1 µM) has a cell count of 86.1%.
`Nc1ccn([C@@H]2O[C@H](CO)[C@@H](O)C2(F)F)c(=O)n1` [gemcitabine] + O=C1NC(=O)/C(=C/c2ccc(-c3ccc(F)cc3O)o2)S1 [AS252424] (first compound 0.0004 µM, partner dose 1 µM) gave a cell count of 107%.
Molecule `Nc1ccn([C@@H]2O[C@H](CO)[C@@H](O)C2(F)F)c(=O)n1` [gemcitabine] + Oc1nc(-c2ccc(C(F)(F)F)cc2)nc2c1CSCC2 [XAV939] (first compound 0.0004 µM, partner dose 2 µM) has a cell count of 101%.
In the case of `Nc1ccn([C@@H]2O[C@H](CO)[C@@H](O)C2(F)F)c(=O)n1` [gemcitabine] + O=S(=O)(c1ccccc1)N(CC(F)(F)F)c1ccc(C(O)(C(F)(F)F)C(F)(F)F)cc1 [T0901317] (first compound 0.0004 µM, partner dose 1.4 µM), the cell count is reported as 69.4%.
In the case of `Nc1nc(F)nc2c1ncn2[C@@H]1O[C@H](CO)[C@@H](O)[C@@H]1O` [fludarabine] + CCc1ccc(CCOc2ccc(CC3SC(=O)NC3=O)cc2)nc1 [pioglitazone] (first compound 0.2 µM, partner dose 2 µM), the cell count is reported as 119%.
`CC(=O)c1c(C)c2cnc(Nc3ccc(N4CCNCC4)cn3)nc2n(C2CCCC2)c1=O` [palbociclib] + Cc1cc([N+](=O)[O-])ccc1NS(=O)(=O)c1cc(Cl)ccc1Cl [FH535] (first compound 0.04 µM, partner dose 1 µM) was tested, and the cell count was 71.6%.
`CC(=O)O[C@@]12CO[C@@H]1C[C@H](O)[C@@]1(C)C(=O)[C@H](O)C3=C(C)[C@@H](OC(=O)[C@H](O)[C@@H](NC(=O)OC(C)(C)C)c4ccccc4)C[C@@](O)([C@@H](OC(=O)c4ccccc4)[C@H]21)C3(C)C` [Docetaxel] + N#Cc1c(O)c2c(-c3ccc(-c4ccccc4O)cc3)csc2[nH]c1=O [A769662] (first compound 0.0001 µM, partner dose 2 µM) showed a cell count of 71.3%.
`Nc1ncn([C@H]2C[C@H](O)[C@@H](CO)O2)c(=O)n1` [decitabine] + COC(=O)c1sccc1S(=O)(=O)Nc1ccc(Nc2ccccc2)cc1OC [GSK0660] (first compound 0.1 µM, partner dose 1 µM) gave a cell count of 80.2%.
`CO[C@H]1C[C@@H]2CC[C@@H](C)[C@@](O)(O2)C(=O)C(=O)N2CCCC[C@H]2C(=O)O[C@H]([C@H](C)C[C@@H]2CC[C@@H](OCCO)[C@H](OC)C2)CC(=O)[C@H](C)/C=C(\C)[C@@H](O)[C@@H](OC)C(=O)[C@H](C)C[C@H](C)/C=C/C=C/C=C/1C` [everolimus] + COc1ccc2c(c1)CCC1C2CCC2(C)C(NCCCCCCN3C(=O)C=CC3=O)CCC12 [U73122] (first compound 0.02 µM, partner dose 0.4 µM) gave a cell count of 78.4%.
Work on `CC(=O)O[C@@]12CO[C@@H]1C[C@H](O)[C@@]1(C)C(=O)[C@H](O)C3=C(C)[C@@H](OC(=O)[C@H](O)[C@@H](NC(=O)OC(C)(C)C)c4ccccc4)C[C@@](O)([C@@H](OC(=O)c4ccccc4)[C@H]21)C3(C)C` [Docetaxel] + O=S(=O)(c1ccccc1)N(CC(F)(F)F)c1ccc(C(O)(C(F)(F)F)C(F)(F)F)cc1 [T0901317] (first compound 0.0001 µM, partner dose 1.4 µM) yielded a cell count of 81.4%.
